# Assay results: the supplement of paper PMC4604168 (melanoma cell lines)
# The other results are listed elsewhere or left out. Many values rest on one well or one pass, so single values are uncertain.
# Assays:
# Experiment in all cases: cell count relative to DMSO control; melanoma cells; higher = more viable cells
# Conditions in all cases: library dose: standard library concentration; 72 h
# G361 = test system: G361
# IPC-298 = test system: IPC-298
# IST-MEL1 = test system: IST-MEL1
# LB2518-MEL = test system: LB2518-MEL
# LOXIMVI = test system: LOXIMVI
# MEL-HO = test system: MEL-HO
# MZ2-MEL = test system: MZ2-MEL
# MeWo = test system: MeWo
# RPMI7951 = test system: RPMI7951
# RVH-421 = test system: RVH-421
# SkMel28 = test system: SkMel28
# SkMel2 = test system: SkMel2
# SkMel30 = test system: SkMel30
# SkMel5 = test system: SkMel5
# UACC257 = test system: UACC257
# UACC62 = test system: UACC62
# WM115 = test system: WM115
# WM1716 = test system: WM1716
# WM1745 = test system: WM1745
# WM3526 = test system: WM3526
# 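Further: cells treated in 1,536-well plates, then fixed and DAPI-stained, with nuclei counted from automated high-throughput microscope images.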
SMILES,cell count (G361),cell count (IPC-298),cell count (IST-MEL1),cell count (LB2518-MEL),cell count (LOXIMVI),cell count (MEL-HO),cell count (MZ2-MEL),cell count (MeWo),cell count (RPMI7951),cell count (RVH-421),cell count (SkMel28),cell count (SkMel2),cell count (SkMel30),cell count (SkMel5),cell count (UACC257),cell count (UACC62),cell count (WM115),cell count (WM1716),cell count (WM1745),cell count (WM3526)
"O=C(Nc1cc(C(F)(F)F)cc(C(F)(F)F)c1)c1cc(Cl)ccc1O + O=C(/C=C/c1cccnc1)NCCCCC1CCN(C(=O)c2ccccc2)CC1 [FK866] (first compound 0.08 µM, partner dose 0.05 µM)",4.92%,26%,68.9%,57.9%,88.1%,44.6%,32.3%,124%,116%,42.7%,92.3%,13.5%,104%,84.3%,96.2%,79.1%,81.2%,70.4%,106%,108%
"Cn1nnc2c(C(N)=O)ncn2c1=O [temozolomide] + COC(=O)c1sccc1S(=O)(=O)Nc1ccc(Nc2ccccc2)cc1OC [GSK0660] (first compound 10 µM, partner dose 5 µM)",107%,82.7%,86%,112%,83.6%,106%,92.3%,108%,90.3%,124%,41.1%,113%,69.6%,93.6%,103%,73.9%,83.5%,72.3%,94.5%,99.2%
"O=C(O)[C@@H]1[O][Sb](=[O])([O][Sb]2(=[O])[O][C@H]([C@H](O)CO)[C@H](O)[C@H](C(=O)O)[O]2)[O][C@H]([C@H](O)CO)[C@@H]1O (stereo not given in full) [stibogluconate] + CO[C@@H]1[C@H](N(C)C(=O)c2ccccc2)C[C@H]2O[C@]1(C)n1c3ccccc3c3c4c(c5c6ccccc6n2c5c31)C(=O)NC4 [Midostaurin] (first compound 10 µM, partner dose 0.4 µM)",42.8%,73.6%,51%,68.7%,57.3%,57.5%,54.4%,55.7%,35.6%,64.4%,66%,32.3%,55.2%,51.9%,55.5%,69.8%,33.7%,32.8%,32.7%,70.7%
"O=C(O)c1ccc2c(c1)nc(Nc1cccc(Cl)c1)c1ccncc12 + CC(C)(C)c1cnc(CSc2cnc(NC(=O)C3CCNCC3)s2)o1 [SNS-032] (first compound 2 µM, partner dose 0.05 µM)",56.1%,69.6%,79%,75.4%,32.3%,63.5%,60.2%,71.2%,21.1%,65%,41.3%,62.9%,66.9%,61.5%,87.8%,55.6%,75.9%,54.8%,30.7%,73.1%
"O=C(Nc1cc(C(F)(F)F)cc(C(F)(F)F)c1)c1cc(Cl)ccc1O + C[C@@H](Oc1cc(-c2cnn(C3CCNCC3)c2)cnc1N)c1c(Cl)ccc(F)c1Cl [Crizotinib] (first compound 0.08 µM, partner dose 1 µM)",123%,103%,107%,107%,163%,93%,118%,83.9%,94.8%,107%,70.9%,118%,89.6%,77%,72.2%,82.1%,80.4%,91.3%,93.4%,85%
"Cn1nnc2c(C(N)=O)ncn2c1=O [temozolomide] + Cn1cc(/C=C2\C(=O)Nc3cccnc32)c2ccccc21 [GW441756] (first compound 10 µM, partner dose 2 µM)",90%,63%,81.3%,83.1%,96%,86.3%,77.2%,104%,92.6%,84.6%,33.4%,102%,72.5%,79.8%,77.9%,62.6%,80.1%,54.8%,80.8%,102%
"O=C(O)c1ccc2c(c1)nc(Nc1cccc(Cl)c1)c1ccncc12 + CN(NC(=O)CC(=O)NN(C)C(=S)c1ccccc1)C(=S)c1ccccc1 [STA4783] (first compound 2 µM, partner dose 0.03 µM)",44.1%,78.6%,26.6%,20.2%,42.9%,65.3%,90.7%,15.6%,104%,37.1%,40.4%,72%,90.3%,95.5%,82.9%,49.1%,30.7%,90.7%,38.9%,103%
"O=C(Nc1ccccc1)c1cc([N+](=O)[O-])ccc1Cl + Oc1cc(-c2nc(-c3ccccc3)[nH]c2-c2ccncc2)ccc1Cl [L779450] (first compound 10 µM, partner dose 1 µM)",57.5%,89%,82.4%,66.6%,66.3%,84.4%,76.7%,78.9%,65.8%,65.4%,43.4%,27.7%,73.5%,68.1%,72.6%,42.2%,41.7%,69.3%,44.1%,53.1%
"O=C(Nc1cc(C(F)(F)F)cc(C(F)(F)F)c1)c1cc(Cl)ccc1O + NC(=O)Nc1cc(-c2cccc(F)c2)sc1C(=O)N[C@H]1CCCNC1 [AZD7762] (first compound 0.08 µM, partner dose 0.1 µM)",116%,97.6%,102%,71.7%,91.4%,79.3%,110%,75.4%,46.1%,159%,43.7%,83.2%,66.3%,60.9%,91.7%,64%,83.3%,84%,59.8%,66%
"Cn1nnc2c(C(N)=O)ncn2c1=O [temozolomide] + COc1cc(Nc2ncc(F)c(Nc3ccc4c(n3)NC(=O)C(C)(C)O4)n2)cc(OC)c1OC [Tamatinib] (first compound 10 µM, partner dose 2 µM)",78%,85.4%,70.1%,85.3%,33.6%,88.1%,86.9%,84.5%,78.7%,85.7%,55.7%,77.2%,77.4%,61%,84.9%,66.7%,93.4%,59.3%,44.8%,79.3%
"Cn1nnc2c(C(N)=O)ncn2c1=O [temozolomide] + CC(C)CCN1c2nc(Nc3cc(F)c(O)c(F)c3)ncc2N(C)C(=O)C1C [BID1870] (first compound 10 µM, partner dose 1 µM)",74.7%,66.6%,74.8%,87.7%,74.8%,78.1%,74.6%,85.3%,63.1%,96.7%,40%,85.7%,43.8%,73.4%,80.7%,82.9%,86.4%,44.7%,97%,63.2%
"O=C(O)[C@@H]1[O][Sb](=[O])([O][Sb]2(=[O])[O][C@H]([C@H](O)CO)[C@H](O)[C@H](C(=O)O)[O]2)[O][C@H]([C@H](O)CO)[C@@H]1O (stereo not given in full) [stibogluconate] + CS(=O)(=O)CCNCc1ccc(-c2ccc3ncnc(Nc4ccc(OCc5cccc(F)c5)c(Cl)c4)c3c2)o1 [lapatinib] (first compound 10 µM, partner dose 4 µM)",63.1%,86.5%,101%,102%,107%,77.4%,62.1%,63%,37.9%,95.7%,83.9%,96.1%,75.3%,58.2%,85.9%,49%,77%,74.1%,83.9%,71.1%
"Cn1nnc2c(C(N)=O)ncn2c1=O [temozolomide] + C[C@@H]1CCN(C(=O)CC#N)C[C@@H]1N(C)c1ncnc2[nH]ccc12 [CP690550] (first compound 10 µM, partner dose 5 µM)",108%,81.9%,72.9%,83.8%,83.9%,96.3%,93.4%,91.1%,91.1%,114%,40.5%,104%,59%,120%,93%,69.2%,98.7%,62.5%,90.7%,104%
"O=C(Nc1cc(C(F)(F)F)cc(C(F)(F)F)c1)c1cc(Cl)ccc1O + C[C@@H](N)c1ccc(C(=O)Nc2ccnc3[nH]ccc23)cc1 [RKI983] (first compound 0.08 µM, partner dose 2 µM)",89.1%,88.4%,89.6%,107%,106%,60.9%,64.6%,74.2%,69.4%,51%,91.5%,133%,107%,49.7%,35.1%,68.7%,100%,29.8%,55.9%,93%
"O=C(Nc1cc(C(F)(F)F)cc(C(F)(F)F)c1)c1cc(Cl)ccc1O + CC1(C)NC(=O)N(c2ccc([N+](=O)[O-])c(C(F)(F)F)c2)C1=O [nilutamide] (first compound 0.08 µM, partner dose 5 µM)",81.7%,81.1%,72.5%,80.2%,78.8%,86.4%,98.4%,64.3%,68.5%,106%,60.7%,87.6%,92.6%,71.9%,83.9%,82.2%,72.4%,88.3%,89.2%,80.3%
"O=C(O)[C@@H]1[O][Sb](=[O])([O][Sb]2(=[O])[O][C@H]([C@H](O)CO)[C@H](O)[C@H](C(=O)O)[O]2)[O][C@H]([C@H](O)CO)[C@@H]1O (stereo not given in full) [stibogluconate] + COc1ccc(Cl)c(Nc2nc3ccccc3nc2NS(=O)(=O)c2cccc(NC(=O)C(C)(C)N)c2)c1 [XL147] (first compound 10 µM, partner dose 4 µM)",103%,80.8%,57%,101%,133%,61.5%,83.5%,90.7%,99.4%,79%,90.6%,105%,108%,92.5%,76.1%,127%,91.4%,87.3%,92.3%,91.1%
"Cn1nnc2c(C(N)=O)ncn2c1=O [temozolomide] + COc1cc2c(Oc3ccc4[nH]c(C)cc4c3F)ncnc2cc1OCCCN1CCCC1 [cediranib] (first compound 10 µM, partner dose 2 µM)",95.7%,72.7%,73%,90.7%,56.7%,94.7%,76.3%,92.3%,73.3%,63.4%,49.8%,82.7%,53.8%,89.2%,94.1%,52.7%,65.1%,52.4%,73.2%,81%
